Results reported in PubChem BioAssay AID1963576 (National Center for Advancing Translational Sciences (NCATS), 2024).
The campaign covered roughly 46,000 compounds. About 60 (0.1%) were called active. Not shown: some 3% with an inconclusive outcome. Calls come from the whole dose curve; as a rule, active = well fitted inhibition curve with a large enough effect; inconclusive = small, poorly fitted or top-dose-only effect; inactive = no such curve, though single readings can be large or run the other way. This is one part of the list.

test: Primary qHTS assay for Inhibitors of ovarian cancer metastasis using an organotypic tumor microenvironment (TME) model.; note: nearly all actives have a fitted effect of over 65% in size;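 for activity change, negative = inhibition: plate controls were DMSO wells for no effect and tomatine positive control wells for full effect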; settings: SKOV3ip1-GFP adhesion/invasion on 3D omental model, fluorescence; series mostly up to 45.8 µM; activity change, negative = inhibition: at the top concentration
How it was run: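 Primary human omental fibroblast/mesothelial 3D culture pre-formed 48 h. SKOV3ip1-GFP cells added with compounds (0.36-46 umol/L), incubated 2 h RT/16 h 37 C, fixed; GFP cells quantified at 488/509 nm.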

Activity change, negative = inhibition, inactive:
CCOc1cc(C2C(C(N)=O)=C(C)Nc3ncnn32)cc(Br)c1O (configuration not stated) 4.9%
Cc1ccc(-c2nn(CCC(=O)Nc3ccc(Cl)c(Cl)c3)c(=O)c3ccccc23)cc1 2.55%
COC(=O)c1cc2occc2n1Cc1ccc(F)cc1Cl 3.27%
Cc1ccc(CSC2=Nc3ccccc3C3=NC(CCC(=O)NCCc4ccccc4)C(=O)N23)cc1 (configuration not stated) -7.96%
Brc1ccc2nc(-c3ccccc3)c(Nc3ccc4c(c3)OCO4)n2c1 2.93%
CCC(=O)N1CCc2cc(CNC(=O)Nc3cc(Cl)ccc3C(=O)OC)ccc21 3.95%
CCc1cccc(NC(=O)C(CC(C)C)NS(=O)(=O)c2ccc3c(c2)oc(=O)n3C)c1 (configuration not stated) 5.02%
CC(C)(C)c1nc(-c2cccc(NS(=O)(=O)c3c(F)cccc3F)c2F)c(-c2ccnc(N)n2)s1 28%
COc1ccccc1-c1nnc(SCC(=O)c2ccc(F)cc2)n1-c1ccccc1 -14.1%
Cn1nnnc1SCCNCc1ccc(OCc2ccc(Cl)cc2)cc1 -17.9%
O=C(Nc1cccc(Cl)c1)C1CCCN1S(=O)(=O)c1cccc2cccnc12 (configuration not stated) -8.39%
Cc1cccc(NC(=O)CSc2nc(=O)n(Cc3cccnc3)c3c2CCC3)c1C 1.27%
COc1cccc2c1CCCC2CCCN1CCN(C2CCCCC2)CC1 (configuration not stated) 2.44%
COc1ccc(C(=O)Nc2ccc(N3CCOCC3)c(C(F)(F)F)c2)cc1OC -18.9%
COc1cccc(OCC(=O)Nc2nnc3n2CCS3)c1 -1.55%
CCc1ccc(C2=C(C)C(N3CCC(C(=O)NCCc4ccco4)CC3)=NS2(=O)=O)cc1 10.7%
Cc1oc(-c2cccc(Cl)c2)nc1CN1CCC(C(=O)NCCc2ccc(Cl)cc2)CC1 1.88%
COc1ccc(NC(=O)c2cc3c(=O)n(Cc4cccnc4)ccc3nc2C)cc1Cl -7.36%
COc1ccccc1NC(=O)c1cc(S(=O)(=O)N2CCc3ccccc32)ccc1F 3.55%
CN(C)c1ccc(C(CNS(=O)(=O)c2ccc(F)cc2)N2CCc3ccccc32)cc1 (configuration not stated) 8.32%
COc1cc(-c2nnc(SCC(=O)Oc3ccccc3Cl)o2)cc(OC)c1OC -4.68%
COc1ccc(S(=O)(=O)c2cn(Cc3ccccc3)c3ccc(OC)cc3c2=O)cc1 -3.43%
C=Cc1ccc(Cn2c(=O)cc(C)c3c(C)nn(C)c32)cc1 3.75%
CCOC(=O)c1cc(-c2ccccc2)n(CCCC(=O)Nc2cc(C)ccc2OC)c1C 5.22%
Cc1cccc(C(=O)Nc2ccc(N3CCN(c4ccc(F)cc4)CC3)c(C(=O)O)c2)c1 -23.7%
COc1ccccc1Cc1nc2ccccc2nc1SCC(=O)N1CCC(C)CC1 5.05%
CC(C)CCN(Cc1ccco1)C(=O)Cn1ncc2c([nH]c3ccccc32)c1=O -1.04%
COc1ccccc1NC(=O)c1cc(C2CC2)nc2c1c(C)nn2-c1ccc(C)cc1 -7.9%
O=c1c(N2CCc3ccccc3C2)csc2ccc(Br)cc12 2.6%
O=c1c(S(=O)(=O)c2ccc(Cl)cc2)cn(Cc2ccc(F)cc2)c2ccc(F)cc12 -0.786%
COc1ccc(Nc2cc(C(=O)NCc3ccccc3)c3ccccc3n2)cc1OC -6.37%
CN1C(=O)c2[nH]nc(-c3ccc(F)cc3)c2C1c1ccccn1 (configuration not stated) 6.47%
COc1ccc(S(=O)(=O)c2cn(Cc3ccccc3)c3cc(F)c(F)cc3c2=O)cc1 -3.33%
COc1ccc(OC)c(NC(=O)CCc2nc(-c3ccc(C)cc3)no2)c1 29.3%
Cc1c(C(=O)N2CCC(C)CC2)c(S(=O)(=O)N2CCN(c3cccc(Cl)c3)CC2)c(C)n1C 12.5%
Cc1ccc2nc(SCC(=O)Nc3ccc(C#N)cc3)[nH]c2c1 9.09%
Cc1ccn2c(Nc3ccc4c(c3)OCCO4)c(-c3ccc(C)s3)nc2c1 -3.46%
CC(C)c1ccc(NC(=O)Cn2nnc(C(=O)NCc3cccs3)c2N)cc1 24.4%
CCCCn1c(SCC(=O)Nc2ccc(F)cc2)nc2c(sc3ccccc32)c1=O -14.1%
Fc1ccc(Nc2nc(Nc3ccc(F)cc3)nc(N3CCOCC3)n2)cc1 15.4%
COc1ccc(C(=O)NCC(c2ccc3c(c2)OCO3)N2CCN(c3ccc(F)cc3)CC2)cc1 (configuration not stated) -16.4%
COc1ccc(NC(=O)C(=O)NCC2(c3ccccc3)CCCC2)c(OC)c1 -11.5%
CCOc1ccc(-c2cc(C(=O)N3CCN(c4cccc(C(F)(F)F)c4)CC3)c3ccccc3n2)cc1 -5.47%
O=C(CSc1nnc(-c2ccc(Br)cc2)n1-c1ccccc1)c1ccccc1 -3.43%
CCOc1ccccc1N(CC(=O)Nc1ccc(OC)c(Cl)c1)S(=O)(=O)c1ccccc1 25.9%
Cc1ccc2oc3c(c(=O)c2c1)C(c1ccc(OCC(N)=O)cc1)N(Cc1ccc2c(c1)OCO2)C3=O (configuration not stated) -4.55%
COc1ccc(-c2cn3nc(N4CCC(C(=O)Nc5ccc(C)cc5)CC4)sc3n2)cc1 -4.42%
CC1CCCCN1C(=O)CSc1nnc(-c2ccccc2Cl)o1 (configuration not stated) 0.122%
CCOc1ccc(N(CC)S(=O)(=O)N2CCCC(C(=O)NCCc3ccccc3OC)C2)cc1 (configuration not stated) -3.65%
COc1ccccc1CNC(=O)Cn1c(=O)ccc2cc(S(=O)(=O)N3CCCC3)ccc21 -7.53%
COc1ccc(CNC(=O)CN2C(=O)COc3ccc(S(=O)(=O)N4CCOCC4)cc32)cc1 -6.24%
CCOc1ccc(/C=C/c2nc(C#N)c(N3CCN(c4ccccc4)CC3)o2)cc1 -20.1%

outcome, inactive:
Cc1ccc(NC(=O)CN2C(=O)CSc3ccc(S(=O)(=O)N(C)C)cc32)cc1C
CCc1noc(-c2ccc(N3CCCCC3)c([N+](=O)[O-])c2)n1
Cc1ccc(CN2C(=O)c3ccccc3Sc3ccc(C(=O)NCCCN4CCOCC4)cc32)cc1
Cc1cc(Cl)ccc1OCc1cc(=O)n2c3c(sc2n1)CCCC3
CCc1ccc(CNC(=O)CN2C(=O)CCn3nc(-c4cn(C)c5ccccc45)cc32)cc1
Cc1cccc(N2CCN(c3c4c(nc5nncn35)CCC4)CC2)c1C
CCOc1ccc(C(=O)NCc2ccc3c(c2)CCN3C(=O)c2ccc(C)cc2)cc1OCC
Cc1ccc(N(CC(C)C)S(=O)(=O)c2nnc(NC(=O)c3cccs3)s2)cc1
CNC(=O)CSc1nnc(NC(=O)Nc2ccccc2)s1
Cc1cccc(Oc2coc3cc(OCC(=O)NC4CCCCC4)ccc3c2=O)c1
